Test results published in publication PMC4336329 (PLoS ONE, 2015).
Among all 310,000 compounds or so, about 2,200 (0.71%) showed an effect of 50% or more. The effect is printed as a negative number. The list shows a part of the results.

Each compound was assayed against human ether-à-go-go-related gene (hERG) potassium channel (human, UniProt Q12809) (assay: primary screen, population patch clamp on CHO cells stably expressing hERG).
human ether-à-go-go-related gene (hERG) potassium channel, sequence (Q12809 whole entry, looked up): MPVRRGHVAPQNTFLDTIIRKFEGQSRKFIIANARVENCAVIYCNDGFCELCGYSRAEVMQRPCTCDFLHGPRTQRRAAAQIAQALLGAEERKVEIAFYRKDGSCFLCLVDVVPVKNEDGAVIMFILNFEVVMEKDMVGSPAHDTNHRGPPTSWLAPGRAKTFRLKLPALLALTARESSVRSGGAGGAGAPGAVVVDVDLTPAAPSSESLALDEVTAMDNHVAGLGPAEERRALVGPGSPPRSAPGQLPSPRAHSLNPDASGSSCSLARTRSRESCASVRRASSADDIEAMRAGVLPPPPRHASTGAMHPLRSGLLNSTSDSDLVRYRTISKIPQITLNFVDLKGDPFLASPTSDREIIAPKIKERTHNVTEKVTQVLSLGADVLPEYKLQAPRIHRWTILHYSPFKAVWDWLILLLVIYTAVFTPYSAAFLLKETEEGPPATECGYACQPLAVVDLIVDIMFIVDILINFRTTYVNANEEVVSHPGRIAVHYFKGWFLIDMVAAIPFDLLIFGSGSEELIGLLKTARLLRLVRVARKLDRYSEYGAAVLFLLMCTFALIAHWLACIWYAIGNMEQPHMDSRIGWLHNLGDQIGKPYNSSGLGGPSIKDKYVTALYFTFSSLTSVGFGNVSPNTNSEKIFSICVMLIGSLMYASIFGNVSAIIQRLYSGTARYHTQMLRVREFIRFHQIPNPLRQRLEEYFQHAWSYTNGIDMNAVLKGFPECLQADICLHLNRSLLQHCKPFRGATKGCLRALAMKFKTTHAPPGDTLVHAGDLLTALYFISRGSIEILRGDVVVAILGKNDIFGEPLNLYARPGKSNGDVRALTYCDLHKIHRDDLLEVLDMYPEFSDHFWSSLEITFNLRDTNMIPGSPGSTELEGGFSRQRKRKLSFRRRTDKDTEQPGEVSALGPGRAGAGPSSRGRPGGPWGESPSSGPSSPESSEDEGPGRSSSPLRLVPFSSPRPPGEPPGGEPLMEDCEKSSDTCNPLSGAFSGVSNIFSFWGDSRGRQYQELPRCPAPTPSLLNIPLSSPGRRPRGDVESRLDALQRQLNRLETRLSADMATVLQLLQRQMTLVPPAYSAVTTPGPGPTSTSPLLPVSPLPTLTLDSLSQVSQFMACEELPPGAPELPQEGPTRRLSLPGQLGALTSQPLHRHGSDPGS

SMILES	hERG current change (%, negative = inhibition) at 1uM
O=C(CSc1ncc(-c2ccccc2)[nH]1)Nc1ccccc1F	10.3%
CC(C)(C)NC(=O)C(c1ccncc1)N(C(=O)Cn1nnc(-c2ccc(F)cc2)n1)c1cccc(F)c1 (stereo not drawn)	10.1%
Cc1cc(C)n(/N=C/c2c[nH]c3ccccc23)c(=O)c1C#N	14.8%
O=C(O)COc1ccc(-c2nc(-c3ccccc3)c(-c3ccccc3)[nH]2)cc1	13.7%
O=C(CSC(=S)N1CCCCC1)Nc1ncc2c(n1)CCCC2=O	13.7%
CCOC(=O)c1cc(-c2ccccc2)nn1CC1CC(c2cccnc2)=NO1 (stereo not drawn)	3.98%
CNCC(O)c1cc(OCc2ccccc2)c(OCc2ccccc2)cc1F (stereo not drawn)	13.1%
Cn1c(SCc2cc(=O)[nH]c3ccccc23)nnc1-c1ccco1	11.4%
COc1cccc(CNS(=O)(=O)c2ccc(N3CCCC3=O)cc2)c1	1.94%
c1ccc(C2OCCN3CCCCC23)cc1 (stereo not drawn)	2.18%
Fc1ccc(-c2csc(=S)[nH]2)cc1	8.7%
O=C(NC1CCCC1)c1cc(-c2ccc(Cl)c(Cl)c2)on1	12.5%
CCN(CC)c1ccc(/C=N/NC(=O)OC)c(O)c1	5.91%
COc1ccc([N+](=O)[O-])cc1N(CC(=O)N1CCOCC1)S(C)(=O)=O	16.6%
Cc1c(Cc2ccccc2)sc(/N=C/c2ccc3ccccc3c2)c1C(N)=O	11.3%
CS(=O)(=O)Nc1ccccc1C(=O)NCCSc1ccccc1	12.2%
CCOC(=O)N1CCC(N(CCCOC)C(=O)Nc2ccc(CC)cc2)CC1	-4.18%
CCCCn1nc2cc(C(=O)NCC3CC3)ccc2c1OCC	-11%
CCCOc1cccc(C(=O)NCCCNC(=O)c2ccccn2)c1	16.2%

SMILES	hERG current change (%, negative = inhibition) at 1uM
O=C(Nc1cc2c(cc1Br)OCCO2)c1ccco1	25.6%
COc1c(Cl)cc(C(=O)Nc2ccccc2-c2ccccc2)cc1Cl	10.6%
CC(=O)c1cnc2cc(-c3ccc(C)cc3)nn2c1C	9.07%
CCn1c(SCC(=O)Nc2ccc(F)cc2F)nc2c(c1=O)SCC2	5.88%
CC(Oc1ccc(Cl)cc1Cl)C(=O)NC1=NN(c2ccccc2)C(=O)C1 (stereo not drawn)	-12.9%
COCC1CCCCN1C(=O)c1ccc(OC2CCN(Cc3ccccn3)CC2)cc1 (stereo not drawn)	4.31%
Cc1cc(C)c2nc(N3CCN(C(=O)c4cccs4)CC3)sc2c1	-1.69%
CCC[C@@H](CNC)NC[C@H](Cc1ccccc1)NCCCCc1ccccc1	8.73%
Cc1cccn2c(=O)c(/C=C(\C#N)C(=O)NCc3ccccc3)c(N3CCC(C(N)=O)CC3)nc12	7.42%
CCC(=O)N1CCCc2cc(S(=O)(=O)N3CCN(c4ccccc4F)CC3)ccc21	5.39%
COC(F)(C(=O)Nc1ccc2c(c1)C(=O)NC2=O)C(F)(F)F (stereo not drawn)	-1.02%
Cc1cc(C(=O)Nc2c(C)nn(Cc3c(Cl)cccc3Cl)c2C)no1	6.34%
CCc1cccc(CC)c1NC(=O)COC(=O)Cc1ccsc1	16.4%
Cc1cccc(NC(=O)CCSc2ccccc2)c1C	6.22%
O=C(Nc1ccc(-c2cn3ccsc3n2)cc1)c1ccc(F)c(S(=O)(=O)N2CCOCC2)c1	0.396%
CCOC(=O)C(CC)n1cnc2c(cnn2-c2ccc(Cl)cc2)c1=O (stereo not drawn)	5.31%
CCn1c(SCC(=O)N2CCCC2)nc2c(c1=O)SC(C)C2 (stereo not drawn)	14.5%
COc1cc(/C=C2\SC(=Nc3ccc(N4CCOCC4)cc3)N(C)C2=O)ccc1OC(C)C(=O)O (stereo not drawn)	9.3%
Cc1onc(-c2ccccc2Cl)c1C(=O)NCc1nc(-c2ccc(C(F)(F)F)cc2)no1	20.8%

SMILES	hERG current change (%, negative = inhibition) at 1uM
CCOC(=O)C(NCCc1ccccc1)(NC(C)=O)C(F)(F)F (stereo not drawn)	7.74%
CS(=O)(=O)N1CCc2cc(-c3csc(NC(=O)Cc4ccccc4)n3)ccc21	3.59%
Cc1onc(-c2c(F)cccc2Cl)c1-c1nnc(-c2ccc(C(F)(F)F)cc2)o1	2.21%
O=C(CN(CCc1ccccc1)C(=O)CNS(=O)(=O)c1ccc(F)cc1)NCC1CCCO1 (stereo not drawn)	8.08%
CC1(C)COC(c2cccc(C3=NC(C)(C)CO3)n2)=N1	13.1%
Cc1ccc(C)c(SCC(=O)NNC(=O)c2ccccc2)c1	9.22%
COc1ccccc1C1CCN(Cc2cccc(C(=O)N3CCC(O)CC3)c2)CC1	16.4%
O=C(CSc1nnc(-c2ccccn2)n1Cc1ccco1)Nc1ccc2c(c1)OCO2	1.69%
CCC(C)c1ccc(OCc2ccc(C(=O)O)o2)cc1 (stereo not drawn)	18.2%
CC(C(=O)c1ccc(-c2ccccc2)cc1)[n+]1cccc(C(N)=O)c1.[Br-] (stereo not drawn)	15.5%
CCOc1ccccc1NC(=O)c1cc(C(=O)c2cc(OC)ccc2O)coc1=N	8.22%
CC(/C=N/N1CCN(Cc2ccccc2)CC1)=C\c1ccccc1	19.4%
CCN(CC)C(=O)C1CCCc2c1[nH]c1ccc(Cl)cc21 (stereo not drawn)	7.07%
CN(C)c1nc(N)nc(Nc2ccccc2C#N)n1	11.6%
Cc1cc(C(C)(C)C)oc1C(=O)N(CC(=O)NC1CCCC1)Cc1ccc(F)cc1	10.6%
CCN1CCN(c2ncnc3c2c(-c2ccccc2)cn3-c2ccc(F)cc2)CC1	-44%
Cc1ccc2sc(NNC(=O)C3COc4ccccc4O3)nc2c1C (stereo not drawn)	9.9%
Cc1nnc2sc(SCC(=O)N3CCC(C)CC3)nn2c1=O	-1.71%
COc1cc2c(cc1OC)-c1cc(Nc3ccccc3C)nc(=O)n1CC2	17.5%
